Assay results: article PMC4336329 (PLoS ONE, 2015)
Screen size: about 310,000 compounds; about 2,200 (0.71%) showed an effect of 50% or more. Effects have a minus sign here. The list shows a part of the results.

Biological target: human ether-à-go-go-related gene (hERG) potassium channel (human, UniProt Q12809)
Assay: primary screen, population patch clamp on CHO cells stably expressing hERG

human ether-à-go-go-related gene (hERG) potassium channel, sequence (Q12809 whole entry, looked up): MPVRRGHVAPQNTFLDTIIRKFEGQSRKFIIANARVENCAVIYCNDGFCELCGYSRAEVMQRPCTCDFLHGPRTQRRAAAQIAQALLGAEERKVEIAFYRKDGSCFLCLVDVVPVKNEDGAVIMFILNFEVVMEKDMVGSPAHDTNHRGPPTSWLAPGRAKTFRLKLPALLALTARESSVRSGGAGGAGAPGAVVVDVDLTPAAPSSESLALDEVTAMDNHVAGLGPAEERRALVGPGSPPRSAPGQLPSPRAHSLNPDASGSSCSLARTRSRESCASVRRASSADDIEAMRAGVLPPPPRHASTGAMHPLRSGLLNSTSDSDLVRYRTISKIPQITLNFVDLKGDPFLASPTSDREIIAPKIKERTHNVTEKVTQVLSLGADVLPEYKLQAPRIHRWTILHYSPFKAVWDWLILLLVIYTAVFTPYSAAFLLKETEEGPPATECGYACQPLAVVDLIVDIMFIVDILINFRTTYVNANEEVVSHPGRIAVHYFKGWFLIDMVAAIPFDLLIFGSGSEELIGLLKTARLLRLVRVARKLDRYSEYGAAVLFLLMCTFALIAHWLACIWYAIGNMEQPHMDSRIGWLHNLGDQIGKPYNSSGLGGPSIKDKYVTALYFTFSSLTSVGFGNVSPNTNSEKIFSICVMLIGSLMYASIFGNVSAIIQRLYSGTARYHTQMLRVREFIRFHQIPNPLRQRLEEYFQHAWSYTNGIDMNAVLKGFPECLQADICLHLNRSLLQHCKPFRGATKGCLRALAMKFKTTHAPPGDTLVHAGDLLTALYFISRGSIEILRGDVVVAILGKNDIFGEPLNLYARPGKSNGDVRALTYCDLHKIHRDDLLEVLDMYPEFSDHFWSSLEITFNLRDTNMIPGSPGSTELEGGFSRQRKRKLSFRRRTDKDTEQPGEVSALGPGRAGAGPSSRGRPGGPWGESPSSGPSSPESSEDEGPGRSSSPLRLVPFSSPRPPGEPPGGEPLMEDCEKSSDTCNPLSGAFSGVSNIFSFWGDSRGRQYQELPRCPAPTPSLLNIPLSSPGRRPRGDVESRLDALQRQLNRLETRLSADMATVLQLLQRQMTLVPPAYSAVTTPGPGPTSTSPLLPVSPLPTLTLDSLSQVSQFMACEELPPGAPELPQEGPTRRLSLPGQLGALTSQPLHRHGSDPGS

In order of rising “hERG current change (%, negative = inhibition) at 1uM” value:
1. O=C(N/N=C/c1cccc([N+](=O)[O-])c1)C1CC(=O)N(c2ccc(Cl)cc2)C1 (centres unmarked)  -39.3%
2. CCOc1ccc(/C=C2/Sc3ccc(C(=O)N4CCN(C(=O)c5ccco5)CC4)cc3N(C)C2=O)cc1OC  -21.7%
3. CC1(C)Cc2c(cnn2-c2ccc(F)cc2)C(NC(=O)CCN2CCCCO2)C1 (centres unmarked)  -14.5%
4. O=C(OCCN1CCCCC1)c1ccc(O)cc1  -12%
5. CCOc1ccccc1C(=O)OCC(=O)Nc1ccc(OC(F)F)cc1  -10.3%
6. N=C1c2ccccc2CN1NC(=O)c1cccc(S(=O)(=O)N2CCOCC2)c1  -10.3%
7. O=C(NCc1ccccc1)Nc1cccn(Cc2ccccc2)c1=O  -3.9%
8. COc1cc(C2=NOC(C(=O)NCc3ccc(F)cc3)C2)cc(OC)c1OC (centres unmarked)  -3.57%
9. Br.COc1ccc(C2=CSC3=NCCN23)cc1F  -3.47%
10. COc1ccc(/C=N/Nc2nn3cnnc3c3ccccc23)cc1  -3.29%
11. Cc1ccc(-n2c(SCC3CCCCO3)nnc2-c2ccco2)cc1 (centres unmarked)  -2.89%
12. COc1ccccc1CNC(=O)[C@@H](NC(=O)C1CCN(C(=O)[C@@H]2CCCN2)CC1)C(C)C  -2.41%
13. O=C(c1ccc(Cl)c(Cl)c1)c1cc(-c2ccccn2)c(N2CCOCC2)s1  -1.05%
14. COCCn1c(SC(C)C(=O)NCC2CCCO2)nc2sc3c(c2c1=O)CCC3 (centres unmarked)  -0.616%
15. C=Cn1cc[n+](CC(=O)c2ccc(OC)cc2)c1.[Br-]  -0.497%
16. CN1CCN(C(c2cc3cc4c(cc3[nH]c2=O)OCCO4)c2nnnn2C2CCCC2)CC1 (centres unmarked)  0.355%
17. CC(C)(C)N1CC(c2nc3ccccc3n2CCOc2ccccc2)CC1=O (centres unmarked)  0.388%
18. Cc1nn(CC(=O)N(C)C2CCC(C)CC2)c(C)c1S(=O)(=O)N(C)C (centres unmarked)  0.624%
19. Nc1ccc(Sc2ccccc2Cl)nc1  0.8%
20. CCN(C(=O)COC(=O)/C=C/c1cnc2ccccc2n1)c1ccccc1  0.829%
21. CN(c1ccccc1C(=O)N1CCN(c2ccccc2)CC1)S(C)(=O)=O  0.854%
22. O=C1NC(=O)N(CCc2ccc(F)cc2)C(=O)/C1=C/c1ccco1  1.52%
23. OCC1(Cc2ccccc2F)CCCN(Cc2c(F)ccc(F)c2F)C1 (centres unmarked)  1.91%
24. O=C1N/C(=N/c2ccccn2)SC1Cc1ccccc1 (centres unmarked)  2.36%
25. Cc1ccc2sc(N(CCCN(C)C)C(=O)c3ccc(S(=O)(=O)N(C)C4CCCCC4)cc3)nc2c1C.Cl  2.47%
26. Cc1ccc(S(=O)(=O)NCCN2CCOCC2)cc1C  3.39%
27. Cc1ccc(Nc2c(-c3ccccn3)nc3ccc(C)cn23)cc1  3.51%
28. COc1ccc(/C=C(\NC(=O)c2ccccc2)C(=O)OC[C@@H]2CCC[N+]3(C)CCCCC23)cc1OC.[I-] (some centres unmarked)  3.82%
29. CNC(=O)CSc1nc2ccccc2c(=O)n1-c1cc(OC)ccc1OC  3.87%
30. CC(=O)c1ccc(-c2ccc(C(=O)N(C)Cc3nc4ccccc4c(=O)[nH]3)o2)cc1  3.87%
31. O=C(Nc1ccc2ccccc2n1)C1CCCCC1  4.51%
32. O=C(Cc1ccc(S(=O)(=O)N2CCOCC2)s1)OCc1ccc(Cl)cc1  4.81%
33. O=C(c1ccco1)N1CCN(S(=O)(=O)c2ccc3c(c2)OCCO3)CC1  4.86%
34. Cc1c(C)n(C(=O)CSc2nncn2C)c2ccccc12  4.96%
35. CC(=O)c1cccc(N/C=C\c2nnnn2-c2ccc(F)cc2)c1  5.26%
36. CN(C)C(=O)c1cc(C(=O)c2ccccc2)c[nH]1  5.32%
37. NC(=O)C1=NOC(CNc2ncc(C(F)(F)F)cc2Cl)C1 (centres unmarked)  5.58%
38. O=C(c1c[nH]c2ccccc12)N1CCN(c2ccccc2)CC1  6.51%
39. CCOc1ccc(C(=O)NCC(=O)N2CCC3CCCCC3C2)cc1OCC (centres unmarked)  6.92%
40. CCOc1ccc(C(=O)N2CCN(S(=O)(=O)c3cccs3)CC2)c(OCC)c1  7.18%
41. CCOC(=O)[C@H]1[C@H]2COc3ccc(Br)cc3[C@@H]2N2C(=O)c3ccc(Cl)cc3NC(=O)[C@@]12C  7.45%
42. CC(=O)Nc1ccc(S(=O)(=O)N2CCNC(=O)CC2)cc1  7.55%
43. COC(=O)C1CCCCN1C(=O)c1cc(COc2cccc3cnccc23)on1 (centres unmarked)  7.94%
44. COc1cc(NC(=O)c2ccccc2)c(OC)cc1NC(=O)Cc1ccccc1  8.02%
45. Cc1ccc(C2(c3ccc(C)cc3)CC2C(=O)Nc2ccc([N+](=O)[O-])cc2O)cc1 (centres unmarked)  8.54%
46. CCOC(=O)C(C)Sc1ncnc2c1nnn2-c1ccc(F)cc1 (centres unmarked)  8.8%
47. CC(C)N(Cc1ccccc1)S(=O)(=O)N(C)C  9.23%
48. CCC(OC(=O)c1ccco1)C(=O)NCc1ccc2c(c1)OCO2 (centres unmarked)  9.47%
49. O=C(CNC(=O)c1cccs1)NCC(=O)OCc1ccccc1Cl  9.53%
50. COC(=O)C[C@](O)(CCCC(C)(C)O)C(=O)O[C@@H]1C(OC)=C[C@]23CCCN2CCc2cc4c(cc2[C@H]13)OCO4  9.6%
51. O=C(c1cc(-c2cccc(Cl)c2)on1)N1CCCCCC1  9.62%
52. Cn1c(=O)c2c(SCC(=O)N3CCOCC3)nc(-c3ccccc3F)nc2n(C)c1=O  9.63%
53. Cc1ccc(C(c2nnnn2CS(=O)(=O)c2ccc(C)cc2)N2CCCC2)cc1 (centres unmarked)  9.65%
54. Cl.c1ccc([C@H]2CN3CCSC3=N2)cc1  9.75%
55. O=c1cc(-c2ccccc2)nc2cc(-c3ccco3)[nH]n12  9.77%
56. CCCn1c(C(Cc2ccccc2)NC(=O)COC)nc2ccccc21 (centres unmarked)  9.92%
57. COc1cc(CN2CCCC(C)C2)cc([N+](=O)[O-])c1O (centres unmarked)  9.99%
58. Cc1ccc(S(=O)(=O)N2CCC(C(=O)OCC(=O)N3CC(=O)Nc4ccccc43)CC2)cc1  10%
59. COc1cccc(N2CCN(Cc3nc4scc(-c5ccccc5)c4c(=O)[nH]3)CC2)c1  10.1%
60. CN1CCN(c2c(C#N)c(C(F)(F)F)nn2C)CC1  10.5%
61. COc1ccc(-c2nc3ccccc3n2OC(C)C(=O)O)cc1 (centres unmarked)  10.6%
62. CCOC(=O)C1(C)NC(c2ccco2)C2C(=O)N(c3ccc(C)cc3)C(=O)C21 (centres unmarked)  10.6%
63. O=C(NCC(=O)N(c1ccccc1)C(C(=O)NC1CCCC1)c1cccnc1)c1ccco1 (centres unmarked)  10.7%
64. CC12CCC3c4ccc(O)cc4CCC3C1CC(O)C2O (centres unmarked)  10.7%
65. CCN(Cc1ccncc1)C(=O)c1ccccc1NS(=O)(=O)c1ccc(F)cc1  11.5%
66. O=c1[nH]c2cc3c(cc2cc1CN(Cc1cccnc1)C(=S)NCc1ccco1)OCO3  11.7%
67. COc1cccc(-n2c(SCC(=O)Nc3cc(C)on3)nc3c([nH]c4ccccc43)c2=O)c1  12.1%
68. COc1ccc(CCNC(=O)CNC(=O)Cn2cnc3sc(C)c(C)c3c2=O)cc1OC  12.1%
69. CC1=C(Nc2ccc(C(=O)O)cc2)C(=O)c2ccccc2C1=O  12.4%
70. O=C(O)/C=C/C(=O)N1N=C(c2ccco2)CC1c1ccco1 (centres unmarked)  12.8%
71. Cc1ccc(NCC(=O)N/N=C/c2ccc(-c3cccc(C(F)(F)F)c3)o2)cc1  12.9%
72. COc1ccccc1/C=N/NC(=O)c1cc2c(OC)c(OC)ccc2[nH]1  13%
73. CC1=C(C(=O)Nc2ccc(C)cc2C)C(c2ccc([N+](=O)[O-])cc2)n2ncnc2N1 (centres unmarked)  13.6%
74. NC(=O)c1oc2ccccc2c1NC(=O)c1nc2ccccc2s1  14.2%
75. CC(=O)N1CCc2cc(S(=O)(=O)NC3CCCc4ccccc43)ccc21 (centres unmarked)  14.4%
76. O=C(C1=C[C@H](C2CCCCC2)C[C@H](OCCCCO)O1)N1CCOCC1  14.9%
77. COCC1CCCCN1C(=O)c1cccc(OC2CCN(S(C)(=O)=O)CC2)c1 (centres unmarked)  15%
78. Clc1ccc(CO/N=C/c2cccs2)cc1  15.2%
79. Cc1ccc(S(=O)(=O)NCC(C)NS(C)(=O)=O)cc1 (centres unmarked)  16.8%
80. Cc1ccc(C(=O)C2=C(O)C(=O)N(CC3CCCO3)C2c2ccccc2F)o1 (centres unmarked)  18.1%
81. CNS(=O)(=O)c1ccc(NC(=O)Nc2ccc3c(c2)OCO3)cc1  18.3%
82. Cc1cc(=O)oc2cc(OCC(=O)Nc3ccc(N4CCC(C)CC4)cc3)ccc12  19.1%
83. CCN(CC)C(=O)c1c(Cl)nc(C)c([N+](=O)[O-])c1C  22.8%
84. COc1ccccc1-c1c(C)oc2c(CN3CCN(C)CC3)c(O)ccc2c1=O  23%
85. COc1ncnc2c1cnn2-c1ccccc1  23.5%
86. CN(C)c1nc(-c2cccnc2)nc(-c2ccc(Cl)cc2)c1C#N  24.7%
